The other results are listed elsewhere or left out.
Experiments:
Assay in all cases: glycan array binding signal (z-score within array); higher = stronger binding
Conditions in all cases: glycan notation: IUPAC condensed, linker removed
Gal6S(b1-4)Glc6S = molecular target: Gal6S(b1-4)Glc6S
Procedure, shortened: (§1)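 The binding signal is a Z-score computed within each array and averaged over linkers. Arrays of the same protein sequence at different concentrations or buffers were also averaged together. Data originate from 3228 arrays in the Consortium for Functional Glycomics database, kept only where the protein sequence was available.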

Gal6S(b1-4)GlcNAc = molecular target: Gal6S(b1-4)GlcNAc
Procedure, shortened: as §1

Gal6S(b1-4)GlcNAc6S = molecular target: Gal6S(b1-4)GlcNAc6S
Procedure, shortened: as §1

GalNAc(a1-3)Gal = molecular target: GalNAc(a1-3)Gal
Procedure, shortened: as §1

GalNAc(a1-3)GalNAc = molecular target: GalNAc(a1-3)GalNAc
Procedure, shortened: as §1

[1] = molecular target: GalNAc(a1-3)GalNAc(b1-3)Gal(a1-4)Gal(b1-4)Glc
Procedure, shortened: as §1

[2] = molecular target: GalNAc(a1-3)GalNAc(b1-3)Gal(a1-4)Gal(b1-4)GlcNAc
Procedure, shortened: as §1

GalNAc(b1-3)Gal = molecular target: GalNAc(b1-3)Gal
Procedure, shortened: as §1

[3] = molecular target: GalNAc(b1-3)Gal(a1-4)Gal(b1-4)GlcNAc
Procedure, shortened: as §1

[4] = molecular target: GalNAc(b1-3)Gal(a1-4)Gal(b1-4)GlcNAc(b1-3)Gal(b1-4)Glc
Procedure, shortened: as §1

[5] = molecular target: GalNAc(b1-3)Gal(a1-6)Gal(b1-4)Glc
Procedure, shortened: as §1

GalNAc(b1-3)GalNAc = molecular target: GalNAc(b1-3)GalNAc
Procedure, shortened: as §1

GalNAc(b1-3)GlcNAc = molecular target: GalNAc(b1-3)GlcNAc
Procedure, shortened: as §1

GalNAc(b1-4)Gal(b1-4)Glc = molecular target: GalNAc(b1-4)Gal(b1-4)Glc
Procedure, shortened: as §1

GalNAc(b1-4)GlcNAc = molecular target: GalNAc(b1-4)GlcNAc
Procedure, shortened: as §1

[6] = molecular target: GalNAc(b1-4)GlcNAc(b1-2)Man
Procedure, shortened: as §1

[7] = molecular target: GalNAc(b1-4)GlcNAc(b1-2)Man(a1-3)[GalNAc(b1-4)GlcNAc(b1-2)Man(a1-6)]Man(b1-4)GlcNAc(b1-4)GlcNAc
Procedure, shortened: as §1

[8] = molecular target: GalNAc(b1-4)GlcNAc(b1-3)GalNAc(b1-4)GlcNAc
Procedure, shortened: as §1

GalNAc(b1-4)GlcNAc6S = molecular target: GalNAc(b1-4)GlcNAc6S
Procedure, shortened: as §1

GalNAc(b1-6)GalNAc = molecular target: GalNAc(b1-6)GalNAc
Procedure, shortened: as §1

GalNAc3S(b1-4)GlcNAc = molecular target: GalNAc3S(b1-4)GlcNAc
Procedure, shortened: as §1

GalNAc3S(b1-4)GlcNAc3S = molecular target: GalNAc3S(b1-4)GlcNAc3S
Procedure, shortened: as §1

[9] = molecular target: GalNAc3S(b1-4)[Fuc(a1-3)]GlcNAc
Procedure, shortened: as §1

GalNAc4S6S(b1-4)GlcNAc = molecular target: GalNAc4S6S(b1-4)GlcNAc
Procedure, shortened: as §1

GalNAc6S(b1-4)GlcNAc = molecular target: GalNAc6S(b1-4)GlcNAc
Procedure, shortened: as §1

Glc(a1-4)Glc = molecular target: Glc(a1-4)Glc
Procedure, shortened: as §1

[10] = molecular target: Glc(a1-4)Glc(a1-4)Glc(a1-4)Glc
Procedure, shortened: as §1

Glc(a1-6)Glc(a1-6)Glc = molecular target: Glc(a1-6)Glc(a1-6)Glc
Procedure, shortened: as §1

[11] = molecular target: Glc(a1-6)Glc(a1-6)Glc(a1-6)Glc
Procedure, shortened: as §1

Glc(b1-4)Glc = molecular target: Glc(b1-4)Glc
Procedure, shortened: as §1

Glc(b1-6)Glc = molecular target: Glc(b1-6)Glc
Procedure, shortened: as §1

GlcA(b1-3)Gal = molecular target: GlcA(b1-3)Gal
Procedure, shortened: as §1

GlcA(b1-3)GlcNAc = molecular target: GlcA(b1-3)GlcNAc
Procedure, shortened: as §1

GlcA(b1-6)Gal = molecular target: GlcA(b1-6)Gal
Procedure, shortened: as §1

[12] = molecular target: GlcA3S(b1-3)Gal(b1-4)GlcNAc(b1-2)Man
Procedure, shortened: as §1

[13] = molecular target: GlcA3S(b1-3)Gal(b1-4)GlcNAc(b1-3)Gal(b1-4)Glc
Procedure, shortened: as §1

[14] = molecular target: GlcNAc(a1-3)Gal(b1-4)GlcNAc
Procedure, shortened: as §1

[15] = molecular target: GlcNAc(a1-4)Gal(b1-3)GlcNAc
Procedure, shortened: as §1

[16] = molecular target: GlcNAc(a1-4)Gal(b1-4)GalNAc
Procedure, shortened: as §1

[17] = molecular target: GlcNAc(a1-4)Gal(b1-4)GlcNAc
Procedure, shortened: as §1

[18] = molecular target: GlcNAc(a1-4)Gal(b1-4)GlcNAc(b1-3)Gal(b1-4)Glc
Procedure, shortened: as §1

[19] = molecular target: GlcNAc(a1-4)Gal(b1-4)GlcNAc(b1-3)Gal(b1-4)GlcNAc
Procedure, shortened: as §1

[20] = molecular target: GlcNAc(a1-4)Gal(b1-4)GlcNAc(b1-3)Gal(b1-4)GlcNAc(b1-3)Gal(b1-4)GlcNAc
Procedure, shortened: as §1

[21] = molecular target: GlcNAc(a1-4)Gal(b1-4)GlcNAc(b1-3)Gal(b1-4)[Fuc(a1-3)]GlcNAc(b1-3)Gal(b1-4)[Fuc(a1-3)]GlcNAc
Procedure, shortened: as §1

[22] = molecular target: GlcNAc(a1-6)Gal(b1-4)GlcNAc
Procedure, shortened: as §1

B1: CBM40 CPF071 (Clostridium perfringens) (protein)
chain: MAHHHHHHVGTGSNDDDDKSPDPMLSSLGEYKDINLESSNASNITYDLEKYKNLDEGTIVVRFNSKDSKIQSLLGISNSKTKNGYFNFYVTNSRVGFELRNQKNEGNTQNGTENLVHMYKDVALNDGDNTVALKIEKNKGYKLFLNGKMIKEVKDTNTKFLNNIENLDSAFIGKTNRYGQSNEYNFKGNIGFMNIYNEPLGDDYLLSKTGETK
Gal6S(b1-4)Glc6S
  glycan array binding signal (z-score): 1.43
Gal6S(b1-4)GlcNAc
  glycan array binding signal (z-score): -0.172
Gal6S(b1-4)GlcNAc6S
  glycan array binding signal (z-score): -0.442
GalNAc(a1-3)Gal
  glycan array binding signal (z-score): -0.186
GalNAc(a1-3)GalNAc
  glycan array binding signal (z-score): -0.438
[1]
  glycan array binding signal (z-score): 0.121
[2]
  glycan array binding signal (z-score): -0.251
GalNAc(b1-3)Gal
  glycan array binding signal (z-score): -0.078
[3]
  glycan array binding signal (z-score): -0.446
[4]
  glycan array binding signal (z-score): -0.464
[5]
  glycan array binding signal (z-score): -0.253
GalNAc(b1-3)GalNAc
  glycan array binding signal (z-score): 0.09
GalNAc(b1-3)GlcNAc
  glycan array binding signal (z-score): -0.103
GalNAc(b1-4)Gal(b1-4)Glc
  glycan array binding signal (z-score): -0.291
GalNAc(b1-4)GlcNAc
  glycan array binding signal (z-score): -0.231
[6]
  glycan array binding signal (z-score): -0.465
[7]
  glycan array binding signal (z-score): 0.332
[8]
  glycan array binding signal (z-score): -0.182
GalNAc(b1-4)GlcNAc6S
  glycan array binding signal (z-score): -0.249
GalNAc(b1-6)GalNAc
  glycan array binding signal (z-score): -0.243
GalNAc3S(b1-4)GlcNAc
  glycan array binding signal (z-score): -0.055
GalNAc3S(b1-4)GlcNAc3S
  glycan array binding signal (z-score): -0.487
[9]
  glycan array binding signal (z-score): -0.378
GalNAc4S6S(b1-4)GlcNAc
  glycan array binding signal (z-score): 0.038
GalNAc6S(b1-4)GlcNAc
  glycan array binding signal (z-score): 0.037
Glc(a1-4)Glc
  glycan array binding signal (z-score): -0.246
[10]
  glycan array binding signal (z-score): -0.302
Glc(a1-6)Glc(a1-6)Glc
  glycan array binding signal (z-score): 0.464
[11]
  glycan array binding signal (z-score): -0.233
Glc(b1-4)Glc
  glycan array binding signal (z-score): 2.37
Glc(b1-6)Glc
  glycan array binding signal (z-score): -0.589
GlcA(b1-3)Gal
  glycan array binding signal (z-score): -0.573
GlcA(b1-3)GlcNAc
  glycan array binding signal (z-score): 0.262
GlcA(b1-6)Gal
  glycan array binding signal (z-score): -0.273
[12]
  glycan array binding signal (z-score): -0.196
[13]
  glycan array binding signal (z-score): -0.472
[14]
  glycan array binding signal (z-score): -0.478
[15]
  glycan array binding signal (z-score): -0.341
[16]
  glycan array binding signal (z-score): 0.411
[17]
  glycan array binding signal (z-score): -0.441
[18]
  glycan array binding signal (z-score): -0.237
[19]
  glycan array binding signal (z-score): -0.537
[20]
  glycan array binding signal (z-score): -0.178
[21]
  glycan array binding signal (z-score): -0.203
[22]
  glycan array binding signal (z-score): 0.178

— the supplement of paper PMC8728848
